# Test results taken from the supplement of paper PMC8728848.
# This is one part of the list.
# B1: rCnSL-proA (Clitocybe nebularis) (protein)
# chain: AAFFSLVVLLALLPFGIHASALPSTELTPRVNPNLPGPNDVFVGFRGTNNIVGAIYEKDGIKDTPLNNGADAEMGPGSYITDGLFTARIFASGSAGNNPGTTATVCKIYASGVQWRGAPKGYIPVAYFGNGPTAEQRRQTYLRTLGLPGTAIRFGNLNTNPGQGPTAPRQMVVPPGPLRSLLKASCFPAADTRLPQTLHYFEKRVDWNIITAADSQTWGH
# Legend:
# Test in all cases: glycan array binding signal (z-score within array); higher = stronger binding
# Conditions in all cases: glycan notation: IUPAC condensed, linker removed
# [1] = biological target: Gal(b1-4)GlcNAc(b1-3)Gal(b1-4)GlcNAc(b1-6)[Gal(b1-3)]GalNAc
# In short: (§1)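 Arrays were curated from the Consortium for Functional Glycomics database, 3228 in total, and kept only where the protein sequence was available. Binding is expressed as a within-array Z-score. This score was averaged across arrays of the same protein sequence at different concentrations or buffers and across linkers, and negative values can be read as non-binding.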
# [2] = biological target: Gal(b1-4)GlcNAc(b1-3)Gal(b1-4)[Fuc(a1-3)]GlcNAc(b1-3)Gal(b1-4)[Fuc(a1-3)]GlcNAc
# In short: as §1
# [3] = biological target: Gal(b1-4)GlcNAc(b1-3)GalNAc
# In short: as §1
# [4] = biological target: Gal(b1-4)GlcNAc(b1-3)[Fuc(a1-3)GlcNAc(b1-6)]Gal(b1-4)Glc
# In short: as §1
# [5] = biological target: Gal(b1-4)GlcNAc(b1-3)[Gal(b1-4)GlcNAc(b1-6)]Gal(b1-4)GlcNAc
# In short: as §1
# [6] = biological target: Gal(b1-4)GlcNAc(b1-3)[GlcNAc(b1-6)]Gal(b1-4)GlcNAc
# In short: as §1
# [7] = biological target: Gal(b1-4)GlcNAc(b1-6)Gal(b1-4)GlcNAc
# In short: as §1
# [8] = biological target: Gal(b1-4)GlcNAc(b1-6)GalNAc
# In short: as §1
# [9] = biological target: Gal(b1-4)GlcNAc(b1-6)[Gal(b1-3)]GalNAc
# In short: as §1
# [10] = biological target: Gal(b1-4)GlcNAc(b1-6)[Gal(b1-4)GlcNAc(b1-3)]GalNAc
# In short: as §1
# [11] = biological target: Gal(b1-4)GlcNAc6P
# In short: as §1
# [12] = biological target: Gal(b1-6)Gal
# In short: as §1
# [13] = biological target: Gal3S(b1-3)GalNAc
# In short: as §1
# [14] = biological target: Gal3S(b1-3)GlcNAc
# In short: as §1
# [15] = biological target: Gal3S(b1-3)[Fuc(a1-4)]GlcNAc
# In short: as §1
# [16] = biological target: Gal3S(b1-4)Glc
# In short: as §1
# [17] = biological target: Gal3S(b1-4)Glc6S
# In short: as §1
# [18] = biological target: Gal3S(b1-4)GlcNAc
# In short: as §1
# [19] = biological target: Gal3S(b1-4)[Fuc(a1-3)]Glc6S
# In short: as §1
# [20] = biological target: Gal3S(b1-4)[Fuc(a1-3)]GlcNAc
# In short: as §1
# [21] = biological target: Gal3S(b1-4)[Fuc(a1-3)]GlcNAc6S
# In short: as §1
# [22] = biological target: Gal3S4S(b1-4)GlcNAc
# In short: as §1
# [23] = biological target: Gal3S6S(b1-4)GlcNAc
# In short: as §1
# [24] = biological target: Gal3S6S(b1-4)GlcNAc6S
# In short: as §1
# [25] = biological target: Gal4S(b1-4)GlcNAc
# In short: as §1
# [26] = biological target: Gal4S6S(b1-4)GlcNAc
# In short: as §1
# [27] = biological target: Gal6P(b1-4)GlcNAc
# In short: as §1
# [28] = biological target: Gal6S(b1-3)GlcNAc
# In short: as §1
# [29] = biological target: Gal6S(b1-3)GlcNAc6S
# In short: as §1
# [30] = biological target: Gal6S(b1-4)Glc
# In short: as §1
# [31] = biological target: Gal6S(b1-4)Glc6S
# In short: as §1
# [32] = biological target: Gal6S(b1-4)GlcNAc
# In short: as §1
# [33] = biological target: Gal6S(b1-4)GlcNAc6S
# In short: as §1
# [34] = biological target: GalNAc(a1-3)Gal
# In short: as §1
# [35] = biological target: GalNAc(a1-3)GalNAc
# In short: as §1
# [36] = biological target: GalNAc(a1-3)GalNAc(b1-3)Gal(a1-4)Gal(b1-4)Glc
# In short: as §1
# [37] = biological target: GalNAc(a1-3)GalNAc(b1-3)Gal(a1-4)Gal(b1-4)GlcNAc
# In short: as §1
# [38] = biological target: GalNAc(b1-3)Gal
# In short: as §1
# [39] = biological target: GalNAc(b1-3)Gal(a1-4)Gal(b1-4)GlcNAc
# In short: as §1
# [40] = biological target: GalNAc(b1-3)Gal(a1-4)Gal(b1-4)GlcNAc(b1-3)Gal(b1-4)Glc
# In short: as §1
# [41] = biological target: GalNAc(b1-3)Gal(a1-6)Gal(b1-4)Glc
# In short: as §1
# [42] = biological target: GalNAc(b1-3)GalNAc
# In short: as §1
# [43] = biological target: GalNAc(b1-3)GlcNAc
# In short: as §1
# [44] = biological target: GalNAc(b1-4)Gal(b1-4)Glc
# In short: as §1
# [45] = biological target: GalNAc(b1-4)GlcNAc
# In short: as §1
binder,measurement,setting,value
B1,glycan array binding signal (z-score),[1],1.95
same,glycan array binding signal (z-score),[2],-0.135
same,glycan array binding signal (z-score),[3],-0.32
same,glycan array binding signal (z-score),[4],0.661
same,glycan array binding signal (z-score),[5],-0.071
same,glycan array binding signal (z-score),[6],0.091
same,glycan array binding signal (z-score),[7],-0.504
same,glycan array binding signal (z-score),[8],-0.307
same,glycan array binding signal (z-score),[9],-0.086
same,glycan array binding signal (z-score),[10],0.04
same,glycan array binding signal (z-score),[11],-1.27
same,glycan array binding signal (z-score),[12],-0.149
same,glycan array binding signal (z-score),[13],-0.368
same,glycan array binding signal (z-score),[14],-0.309
same,glycan array binding signal (z-score),[15],-0.266
same,glycan array binding signal (z-score),[16],-0.304
same,glycan array binding signal (z-score),[17],-0.416
same,glycan array binding signal (z-score),[18],-0.132
same,glycan array binding signal (z-score),[19],-0.507
same,glycan array binding signal (z-score),[20],-0.076
same,glycan array binding signal (z-score),[21],-0.185
same,glycan array binding signal (z-score),[22],-0.317
same,glycan array binding signal (z-score),[23],-0.324
same,glycan array binding signal (z-score),[24],-0.596
same,glycan array binding signal (z-score),[25],-0.376
same,glycan array binding signal (z-score),[26],-0.282
same,glycan array binding signal (z-score),[27],-0.327
same,glycan array binding signal (z-score),[28],-0.777
same,glycan array binding signal (z-score),[29],-0.576
same,glycan array binding signal (z-score),[30],-0.662
same,glycan array binding signal (z-score),[31],-0.504
same,glycan array binding signal (z-score),[32],-0.713
same,glycan array binding signal (z-score),[33],-0.45
same,glycan array binding signal (z-score),[34],-0.243
same,glycan array binding signal (z-score),[35],-0.629
same,glycan array binding signal (z-score),[36],-0.574
same,glycan array binding signal (z-score),[37],-0.007
same,glycan array binding signal (z-score),[38],-0.048
same,glycan array binding signal (z-score),[39],0.014
same,glycan array binding signal (z-score),[40],-0.096
same,glycan array binding signal (z-score),[41],0.329
same,glycan array binding signal (z-score),[42],-0.444
same,glycan array binding signal (z-score),[43],-0.496
same,glycan array binding signal (z-score),[44],0.571
same,glycan array binding signal (z-score),[45],-0.02
